# Source: publication PMC4336329 (PLoS ONE, 2015)
# About 2,200 (0.71%) of roughly 310,000 compounds showed an effect of 50% or more. The effect is printed as a negative number. The list shows a part of the results.
# Biological target: human ether-à-go-go-related gene (hERG) potassium channel (human, UniProt Q12809)
# Test: primary screen, population patch clamp on CHO cells stably expressing hERG
# Sequence of human ether-à-go-go-related gene (hERG) potassium channel (Q12809 whole entry, looked up): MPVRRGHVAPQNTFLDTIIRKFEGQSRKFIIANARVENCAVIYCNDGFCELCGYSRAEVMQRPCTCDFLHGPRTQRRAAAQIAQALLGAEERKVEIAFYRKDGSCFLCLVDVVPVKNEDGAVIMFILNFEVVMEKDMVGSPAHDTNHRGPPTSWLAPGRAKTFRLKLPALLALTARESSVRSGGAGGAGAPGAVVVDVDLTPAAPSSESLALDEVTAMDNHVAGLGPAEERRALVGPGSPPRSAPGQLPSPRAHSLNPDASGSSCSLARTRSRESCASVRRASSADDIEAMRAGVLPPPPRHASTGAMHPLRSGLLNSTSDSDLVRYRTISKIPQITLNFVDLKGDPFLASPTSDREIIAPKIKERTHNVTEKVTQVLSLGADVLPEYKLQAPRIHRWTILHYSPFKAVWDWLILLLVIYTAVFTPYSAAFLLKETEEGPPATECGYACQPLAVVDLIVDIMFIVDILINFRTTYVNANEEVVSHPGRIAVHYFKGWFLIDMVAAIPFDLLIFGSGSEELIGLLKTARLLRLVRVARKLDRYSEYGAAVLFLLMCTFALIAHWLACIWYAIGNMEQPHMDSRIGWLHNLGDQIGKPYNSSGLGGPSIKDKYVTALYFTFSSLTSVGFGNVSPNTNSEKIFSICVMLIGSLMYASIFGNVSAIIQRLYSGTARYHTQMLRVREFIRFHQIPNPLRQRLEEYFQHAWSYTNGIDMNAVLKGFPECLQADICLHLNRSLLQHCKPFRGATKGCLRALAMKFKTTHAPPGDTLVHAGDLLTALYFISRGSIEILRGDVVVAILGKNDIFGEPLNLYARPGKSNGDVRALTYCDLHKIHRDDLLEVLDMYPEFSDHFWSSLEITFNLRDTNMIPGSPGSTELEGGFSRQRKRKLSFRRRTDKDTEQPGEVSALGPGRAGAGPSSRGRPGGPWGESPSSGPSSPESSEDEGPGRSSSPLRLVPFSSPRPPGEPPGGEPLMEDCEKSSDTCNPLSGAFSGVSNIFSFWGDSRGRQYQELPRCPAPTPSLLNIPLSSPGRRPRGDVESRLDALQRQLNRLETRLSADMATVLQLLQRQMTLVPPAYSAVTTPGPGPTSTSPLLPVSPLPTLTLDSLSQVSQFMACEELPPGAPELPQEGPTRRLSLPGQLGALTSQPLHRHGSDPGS
row,Structure (SMILES),"hERG current change (%, negative = inhibition) at 1uM [%]"
1,COc1ccc(/C=N/NC(=O)CCn2nc(C)cc2C)cc1O,9.84
2,O=[N+]([O-])c1ccccc1CNC1CCCc2ccccc21 (centres unmarked),7.9
3,COc1ccc(C2CC(c3ccccc3)=NN2C(=O)COC(=O)c2cc(S(=O)(=O)N3CCOCC3)ccc2F)cc1 (centres unmarked),3.93
4,Cc1nn(-c2ccccc2)c(C)c1/C=N/NC(=O)CSc1nc2ccccc2c(=O)n1-c1ccc(Br)cc1,9.52
5,O=C1NCCN2CCCC12 (centres unmarked),12
6,Cc1cc(C(=O)NC(=S)Nc2cccc(NC(=O)C(C)C)c2)ccc1[N+](=O)[O-],8.15
7,O=C1CC(c2ccccc2)CC(O)=C1C=Nc1ccc(Cl)cc1 (centres unmarked),12.8
8,Cc1cc(C)cc(-n2nnnc2SCC(=O)N2CCOCC2)c1,6.82
9,O=S(=O)(c1ccccc1)c1nc(-c2ccccc2)oc1N1CCCCC1,-4.72
10,COc1ccc2[nH]c(C(=O)O)c(CCNC(C)=O)c2c1,10.4
11,CN(Cc1ccco1)c1ncnc2ccc(-c3ccc4c(ccn4C)c3)cc12,11
12,Cc1cccc(C2NC(=O)c3c(sc(C)c3C)N2)c1O (centres unmarked),13.4
13,COc1ccc(C2=NOC(C)(c3sc(-c4ccc(Cl)cc4)nc3C)C2)cc1 (centres unmarked),16.3
14,Nc1c(C(=O)NCC2CCCO2)sc(=S)n1-c1ccccc1 (centres unmarked),-1.36
15,CC(C)(C)OC(=O)CNC(=O)c1[nH]cnc1C(=O)NCCCCC[NH3+].[Cl-],14
16,CC(C)NC(=O)C(C)N1CCN(S(=O)(=O)c2ccc3ccccc3c2)CC1 (centres unmarked),9.27
17,CCCN(Cc1cc2ccccc2[nH]c1=O)C(=O)c1cccc([N+](=O)[O-])c1,5.23
18,O=S(=O)(c1ccc(F)cc1)n1ccc(-c2cnc(-c3ccccc3)s2)n1,1.8
19,CCN(CC(=O)Nc1cccc(S(=O)(=O)N2CCCC2)c1)CC(=O)Nc1ccccc1OC,9.22

row,Structure (SMILES),"hERG current change (%, negative = inhibition) at 1uM [%]"
1,Cc1ccc(CSCC(=O)Nc2ccccc2F)cc1,12
2,COC(=O)C1=C(c2ccc3ccccc3c2)C[C@@H]2CC[C@H]1N2C(=O)NCc1ccco1,6.98
3,Cc1cccc(-n2nnnc2SCn2nnc3ccccc3c2=O)c1,5.97
4,O=C(Nc1ccccc1C(=O)NCc1ccco1)c1ccco1,4.62
5,COCCCNC(=O)Cn1c(=O)n(Cc2ccc(C(=O)NCCc3ccc(OC)c(OC)c3)cc2)c(=O)c2ccccc21,0.715
6,O=C(CN1C(=O)NC2(CCCc3ccccc32)C1=O)c1ccc(F)cc1 (centres unmarked),5.94
7,O=C(CSCc1ccccc1Cl)N/N=C/c1ccco1,14.1
8,COc1cccc(CNS(=O)(=O)c2cc(CN3C(=O)c4cccnc4C3=O)ccc2OC)c1,11.9
9,C=CCN1C(=O)CSc2ccc(C(=O)NC3CCCCC3)cc21,16.9
10,N=C1/C(=C/c2cccs2)C(=O)N=C2SN=C(SCc3ccccc3)N12,6.6
11,COc1ccc(-c2nc3ccccc3n2OCC(=O)O)cc1,10.6
12,CCN(CC)S(=O)(=O)c1ccc(-c2nnc(SCC(=O)N3CCOCC3)o2)cc1,3.72
13,N=C1C(c2nc3ccccc3[nH]2)=C(O)CN1c1ccc(CC(=O)O)cc1,9.74
14,O=C(COC(=O)/C=C/c1ccc(C(F)(F)F)cc1)NC1CCCC1,9.55
15,Cn1c(=O)oc2cc(S(=O)(=O)N3CCCC(C(=O)NCc4ccc5c(c4)OCO5)C3)ccc21 (centres unmarked),-2.37
16,Cc1ccc(C(=O)N/N=C\c2sccc2C)cn1,9.72
17,N#Cc1cn(-c2ccccc2)nc1-c1cc2ccccc2oc1=O,13.4
18,COc1ccc2nc(Nc3nc(-c4ccncc4)cs3)sc2c1,12
19,COc1ccc(CCC(=O)N2CCN(S(=O)(=O)c3cccc(C(F)(F)F)c3)CC2)cc1OC,1.18

row,Structure (SMILES),"hERG current change (%, negative = inhibition) at 1uM [%]"
1,O=C(c1cccs1)N(Cc1cccc(F)c1)C1CCS(=O)(=O)C1 (centres unmarked),1.22
2,CNC(=O)Cc1nc2ccccc2n1CC(=O)Nc1cc(C)cc(C)c1,2.79
3,O=C(COC(=O)c1cncc(Br)c1)NCCC1=CCCCC1,13.6
4,CCOC(=O)c1ccn(-c2nc(-c3ccco3)cc(C(F)(F)F)n2)n1,8.49
5,COc1ccc(N2CC(C(=O)Nc3nnc(Cc4ccccc4)s3)CC2=O)cc1 (centres unmarked),7.03
6,CCOC(=O)c1c(C)[n+](-c2ccc(C)cc2)c(CC)c2cc(OC)c(OC)cc12.[Cl-],6.93
7,Cc1cc(C(=O)CN2C(=O)NC3(CCCc4ccccc43)C2=O)c(C)n1Cc1cccs1 (centres unmarked),10.9
8,O=C(O)CSc1nc2ccccc2n1C1CCCCC1,13.8
9,C=CCOc1ccc(CNCCO)cc1OCC.Cl,-6.01
10,O=C(CC1CCCCC1)NCc1ccccc1Cl,11.3
11,CC1CC(C)(C)NC(=S)N1CCC(=O)N1CCc2ccccc2C1 (centres unmarked),9.34
12,O=C(Nc1cccc2[nH]ncc12)c1ccc(F)cc1,-1.68
13,Cc1cccc(NC(=O)c2cc(S(=O)(=O)N3CCOCC3)cn2C)c1C,9.61
14,O=C(CSc1ncn[nH]1)NCCCc1ccccc1,7.45
15,Cc1c(C(=O)N2CCN(c3ccccc3F)CC2)sc2ncn(CC(=O)N3CCOCC3)c(=O)c12,0.425
16,CCCCn1c2c(c3ccccc31)CCc1nonc1-2,3.49
17,O=C(CCn1c(=O)oc2ccccc21)N(Cc1ccccc1)c1ccccn1,-5.59
18,CC(=O)NCCC(=O)N1CCCC(CNC(=O)c2ccc(-c3ccccc3)cc2)C1 (centres unmarked),9.78
